# Data reported in the antibiotic and cytotoxicity screens of Wong et al. (2023).
# The other results are listed elsewhere or left out.
# What was measured:
# HSkMC = human skeletal muscle cells; assay: cytotoxicity call (relative viability < 0.9); conditions: 10 µM
# HepG2 = assay: cytotoxicity call (relative viability < 0.9); conditions: 10 µM
# S. aureus RN4220 = assay: growth inhibition call (relative growth <= 0.2); conditions: 50 µM
Structure (SMILES),cytotoxicity call (HSkMC),cytotoxicity call (HepG2),growth inhibition call (S. aureus RN4220)
COc1ccc(NC(=O)Nc2ccc3c(c2)C(=O)N([C@@H](C)CO)C[C@H](C)[C@@H](CN(C)S(=O)(=O)c2ccc(OC)cc2)OCCCC[C@@H](C)O3)cc1,inactive,inactive,inactive
COc1ccc2c3c([nH]c2c1)[C@@H](CO)N(C[C@]13CN(Cc2ccccc2)C1)S(=O)(=O)c1cn(cn1)C,inactive,inactive,inactive
O=C(C[C@H]1NCCNC1=O)Nc1ccccc1,inactive,inactive,inactive
COc1ccc(S(=O)(=O)N(C)C[C@@H]2Oc3c(NC(=O)c4cc(C)nn4C)cccc3C(=O)N([C@H](C)CO)C[C@@H]2C)cc1,inactive,inactive,inactive
COc1ccc(S(=O)(=O)N(C)C[C@H]2Oc3c(NC(=O)c4cnccn4)cccc3C(=O)N([C@@H](C)CO)C[C@@H]2C)cc1,inactive,inactive,inactive
CCCC#Cc1cnc2c(c1)C(=O)N([C@@H](C)CO)C[C@@H](C)[C@H](CN(C)C(=O)c1ccc3c(c1)OCO3)O2,inactive,inactive,inactive
Cc1noc(C)c1S(=O)(=O)N(C)C[C@@H]1Oc2ccc(NC(=O)NC3CCCCC3)cc2CC(=O)N([C@@H](C)CO)C[C@@H]1C,inactive,inactive,inactive
CN1C(=O)c2cc(NS(=O)(=O)c3cccc(F)c3)ccc2OC[C@@H]2O[C@@H](CC(=O)NCCN3CCCCC3)CC[C@@H]21,inactive,inactive,inactive
O=C(C[C@@H]1CC[C@@H](NC(=O)C2CC2)[C@@H](CO)O1)NCCCN1CCOCC1,inactive,inactive,inactive
CC(C)c1ccc(C(C)(C)CO)cc1,inactive,inactive,inactive
C[C@H](O)C#Cc1ccc2c(c1)O[C@@H](CN(C)C(=O)CN(C)C)[C@H](C)CN([C@@H](C)CO)S2(=O)=O,inactive,inactive,inactive
COc1cccc(S(=O)(=O)N[C@H]2CC[C@@H](CC(=O)NC3CCC3)O[C@@H]2CO)c1,inactive,inactive,inactive
NCCCC(O)(P(=O)(O)O)P(=O)(O)O,inactive,inactive,inactive
Cc1ccc(S(=O)(=O)N(C)C[C@@H]2OCCCC[C@@H](C)Oc3ccc(NC(=O)C4CCCCC4)cc3C(=O)N([C@@H](C)CO)C[C@H]2C)cc1,inactive,inactive,inactive
CNC[C@@H]1Oc2cc(C#CCN(C)C)ccc2S(=O)(=O)N([C@H](C)CO)C[C@@H]1C,inactive,inactive,inactive
COC(=O)[C@H]1CCc2nc[nH]c2C1,inactive,inactive,inactive
Cc1noc(C)c1NC(=O)N(C)C[C@@H]1OCCCC[C@H](C)Oc2ccc(NS(=O)(=O)c3ccccc3)cc2C(=O)N([C@@H](C)CO)C[C@H]1C,inactive,inactive,inactive
CN1C[C@@H](CN)CC1=O,inactive,inactive,inactive
Cn1c(=O)c2c(nc(SCCNS(=O)(=O)c3ccccc3)n2C)n(C)c1=O,inactive,inactive,inactive

Structure (SMILES),cytotoxicity call (HSkMC),cytotoxicity call (HepG2),growth inhibition call (S. aureus RN4220)
CS(=O)(=O)N1CCC2(CC1)CN(CCn1cccn1)C(=O)CO2,inactive,inactive,inactive
C[C@H](CO)N1C[C@H](C)[C@H](CN(C)S(=O)(=O)c2ccc(Cl)cc2)OCCCC[C@H](C)Oc2ccc(NC(=O)Nc3ccc(C(F)(F)F)cc3)cc2C1=O,inactive,active,inactive
C[C@@]1(c2cccs2)CC(c2cccs2)=Nc2ccccc2N1,inactive,inactive,inactive
C[C@H]1CCc2c(C(=O)O)csc2C1,inactive,inactive,inactive
O=C(C[C@H]1CC[C@H]2[C@@H](COC[C@@H](O)CN2S(=O)(=O)c2cccc(F)c2)O1)NCc1ccc2c(c1)OCO2,inactive,inactive,inactive
C[C@@H]1CN([C@@H](C)CO)C(=O)c2cccc(NC(=O)c3nc4ccccc4s3)c2O[C@@H]1CN(C)Cc1ccc(Oc2ccccc2)cc1,inactive,inactive,inactive
Cc1ccc(S(=O)(=O)Nc2ccc3c(c2)C(=O)N([C@H](C)CO)C[C@H](C)[C@H](CN(C)C(=O)Nc2cccc4ccccc24)O3)cc1,inactive,inactive,inactive
COc1ccc(S(=O)(=O)Nc2ccc3c(c2)C(=O)N([C@@H](C)CO)C[C@@H](C)[C@@H](CN(C)S(=O)(=O)c2ccc(F)cc2)O3)cc1,inactive,inactive,inactive
COc1cccc(S(=O)(=O)N(C)C[C@@H]2OCc3cn(nn3)CCCC(=O)N([C@H](C)CO)C[C@@H]2C)c1,inactive,inactive,inactive
COc1ccc(-c2cnc3c(c2)C(=O)N([C@@H](C)CO)C[C@H](C)[C@@H](CN(C)C(=O)Cc2cccnc2)O3)cc1,inactive,inactive,inactive
C[C@@H]1CCCCO[C@@H](CN(C)C(=O)c2ccccc2)[C@@H](C)CN([C@@H](C)CO)C(=O)c2cc(NC(=O)Nc3ccc(F)cc3)ccc2O1,inactive,inactive,inactive
O=C(C[C@@H]1C[C@H]2c3cc(NC(=O)NC4CCCC4)ccc3O[C@H]2[C@@H](CO)O1)NCc1ccc(-c2ccccc2)cc1,inactive,inactive,inactive
COc1ccc2c3c(n(c2c1)C)[C@@H](CO)N(Cc1cc(cc(c1)OC)OC)C[C@]13CN(C1)C(=O)CN1CCOCC1,inactive,inactive,inactive
CC(C)CC#Cc1ccc2c(c1)O[C@H](CN(C)S(=O)(=O)c1ccc(F)cc1)[C@@H](C)CN([C@H](C)CO)S2(=O)=O,inactive,inactive,inactive
COc1ccc(CN(C)C[C@@H]2Oc3c(NC(=O)Nc4ccc(C(F)(F)F)cc4)cccc3C(=O)N([C@@H](C)CO)C[C@@H]2C)cc1,inactive,inactive,inactive
O=C(C[C@@H]1CC[C@@H]2[C@H](COC[C@H](O)CN2Cc2cc(F)ccc2F)O1)N[C@@H]1CCN(Cc2ccccc2)C1,inactive,inactive,inactive
Nc1nccnc1Cl,inactive,inactive,inactive
C[C@@H]1CN([C@@H](C)CO)C(=O)c2cc(NC(=O)Nc3ccc4c(c3)OCO4)ccc2O[C@@H](C)CCCCO[C@@H]1CN(C)C(=O)NC1CCCCC1,inactive,inactive,inactive
C[C@@H]1CN([C@@H](C)CO)C(=O)c2cc(NC(=O)Nc3ccc4c(c3)OCO4)ccc2O[C@@H]1CN(C)Cc1ccc(C(F)(F)F)cc1,inactive,inactive,inactive

Structure (SMILES),cytotoxicity call (HSkMC),cytotoxicity call (HepG2),growth inhibition call (S. aureus RN4220)
CC(C)NC(=O)N(C)C[C@@H]1Oc2cc(C#Cc3ccc(F)cc3)ccc2S(=O)(=O)N([C@@H](C)CO)C[C@H]1C,inactive,inactive,inactive
C[C@@H]1CN([C@@H](C)CO)C(=O)c2cc(NS(=O)(=O)c3ccc(Cl)cc3)ccc2O[C@H]1CN(C)Cc1ccc(C(=O)Nc2ccccc2N)cc1,inactive,inactive,inactive
C[C@@H]1CN([C@H](C)CO)C(=O)c2cc(NS(C)(=O)=O)ccc2O[C@@H]1CN(C)S(=O)(=O)c1cccs1,inactive,inactive,inactive
C[C@@H]1CN([C@H](C)CO)C(=O)c2cc(NC(=O)CCC(F)(F)F)ccc2O[C@@H](C)CCCCO[C@@H]1CN(C)C(=O)CCC(F)(F)F,inactive,inactive,inactive
CCCN(C)C[C@@H]1OCCCC[C@H](C)Oc2ccc(NC(=O)Nc3ccc(C(F)(F)F)cc3)cc2C(=O)N([C@H](C)CO)C[C@@H]1C,inactive,active,inactive
C[C@@H]1CCCCO[C@@H](CN(C)C(=O)Nc2ccc(C(F)(F)F)cc2)[C@H](C)CN([C@@H](C)CO)C(=O)c2cc(NC(=O)c3ccccc3)ccc2O1,inactive,inactive,inactive
C[C@@H]1CCCCO[C@H](CN(C)C(=O)CCCN(C)C)[C@@H](C)CN([C@H](C)CO)C(=O)c2cc(N(C)C)ccc2O1,inactive,inactive,inactive
C[C@@H]1CN([C@@H](C)CO)C(=O)c2cccc(NC(=O)Nc3ccc4c(c3)OCO4)c2O[C@H]1CN(C)Cc1ccc(Cl)c(Cl)c1,inactive,inactive,inactive
COc1ccc(NC(=O)N(C)C[C@H]2Oc3ncc(C#C[C@@H](C)O)cc3C(=O)N([C@H](C)CO)C[C@@H]2C)cc1,inactive,inactive,inactive
C[C@@H]1CN([C@@H](C)CO)C(=O)c2cccc(NC(=O)Nc3ccc(F)cc3)c2O[C@@H]1CN(C)Cc1ccc(C(F)(F)F)cc1,inactive,inactive,inactive
C[C@@H]1CN([C@@H](C)CO)C(=O)c2cc(-c3cccc(C(=O)N(C)C)c3)cnc2O[C@@H]1CN(C)S(=O)(=O)c1cccc(F)c1,inactive,inactive,inactive
Cn1cc(-c2ccno2)c(C(=O)O)n1,inactive,inactive,inactive
C[C@@H]1CN([C@H](C)CO)C(=O)c2cc(NC(=O)Nc3ccc4c(c3)OCO4)ccc2O[C@H]1CN(C)Cc1ccc(C(F)(F)F)cc1,inactive,inactive,inactive
O=C(C[C@@H]1CC[C@@H]2[C@H](COC[C@@H](O)CN2C(=O)c2ccc3c(c2)OCO3)O1)NCCN1CCCC1,inactive,inactive,inactive
C[C@@H]1CN([C@@H](C)CO)C(=O)c2cc(NS(C)(=O)=O)ccc2O[C@H]1CN(C)S(=O)(=O)c1ccccc1,inactive,inactive,inactive
Cc1ccc(S(=O)(=O)N(C)C[C@H]2Oc3ccc(NS(=O)(=O)c4cccs4)cc3C(=O)N([C@H](C)CO)C[C@@H]2C)cc1,inactive,inactive,inactive
COc1cccc(CN(C)C[C@H]2OCc3ccccc3-c3c(n(C)c4ccccc34)C(=O)N([C@H](C)CO)C[C@H]2C)c1,inactive,inactive,inactive
COc1cccc(C#Cc2cnc3c(c2)C(=O)N([C@H](C)CO)C[C@@H](C)[C@@H](CN(C)C(=O)C2CCOCC2)O3)c1,inactive,inactive,inactive
